Data set [1] deals with HeLa Kyoto. In words: thermal stability score vs G1/S (z-score of summed log2 fold changes over temperatures); higher = more thermally stable than in G1/S.
Data set [2] has as its system HeLa Kyoto. In words: solubility change mitosis vs G1/S (difference of NP-40 vs SDS log2 ratios) (log2 ratio difference); higher = more soluble in mitosis.
The test system of data set [3] is HeLa Kyoto. In words: melting temperature (median over replicates), in situ; higher = more thermally stable.
Data set [4] concerns HeLa Kyoto. In words: solubility in G1/S (NP-40 vs SDS abundance) (log2 ratio); higher = more soluble. The settings on record: cell cycle stage: G1/S.
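Wherever melting temperature (median over replicates), in situ is given: HeLa Kyoto cells synchronized by double thymidine or nocodazole block, proteins quantified by TMT10plex mass spectrometry, three independent biological replicates.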
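Wherever solubility change mitosis vs G1/S (difference of NP-40 vs SDS log2 ratios) is given: synchronized HeLa Kyoto cells (double thymidine block for G1/S, nocodazole release for mitosis), protein amounts in NP-40 versus SDS lysates quantified by mass spectrometry, three biological replicates.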
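Wherever solubility in G1/S (NP-40 vs SDS abundance) is given: HeLa Kyoto cells arrested at G1/S by double thymidine block, proteins quantified by TMT10plex mass spectrometry in mild NP-40 versus SDS extracts, three biological replicates.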
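Wherever thermal stability score vs G1/S (z-score of summed log2 fold changes over temperatures) is given: synchronized HeLa Kyoto cells, proteins quantified by TMT10plex mass spectrometry, three biological replicates, mitosis taken 0.5 h after nocodazole release, G1/S directly after double thymidine block.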

Regarding “MAAVGRVGSFGSSPPGLSSTYTGGPLGNEIASGNGGAAAGDDEDGQNLWSCILSEVSTRSRSKLPAGKNVLLLGEDGAGKTSLIRKIQGIEEYKKGRGLEYLYLNVHDEDRDDQTRCNVWILDGDLYHKGLLKFSLDAVSLKDTLVMLVVDMSKPWTALDSLQKWASVVREHVDKLKIPPEEMKQMEQKLIRDFQEYVEPGEDFPASPQRRNTASQEDKDDSVVLPLGADTLTHNLGIPVLVVCTKCDAISVLEKEHDYRDEHFDFIQSHIRKFCLQYGAALIYTSVKENKNIDLVYKYIVQKLYGFPYKIPAVVVEKDAVFIPAGWDNDKKIGILHENFQTLKAEDNFEDIITKPPVRKFVHEKEIMAEDDQVFLMKLQSLLAKQPPTAAGRPVDASPRVPGGSPRTPNRSVSSNVASVSPIPAGSKKIDPNMKAGATSEGVLANFFNSLLSKKTGSPGGPGVSGGSPAGGAGGGSSGLPPSTKKSGQKPVLDVHAELDRITRKPVTVSPTTPTSPTEGEAS [DYNC1LI1]”, the thermal stability score in the data set with HeLa Kyoto [1] (cell cycle stage: early G1 (4.5 h after nocodazole release)) was 1.08; with HeLa Kyoto [1] (cell cycle stage: mitosis) it was 1.52. Moreover, the “solubility change mitosis (log2)” value in the data set on HeLa Kyoto [2] is -0.0139. In addition, the melting temperature with HeLa Kyoto [3] (cell cycle stage: G1/S) came to 51.8 °C; in the data set with HeLa Kyoto [3] (cell cycle stage: mitosis), 52.3 °C. The “solubility in G1/S (log2)” value in the data set on HeLa Kyoto [4] turned out to be 0.409.
